{"source": "paper PMC10398996", "about": "“APP family member dimeric complexes are formed predominantly in synaptic compartments” (Cell & Bioscience, 2023)", "proteins": {"B1": {"name": "APP∆CT, N-terminally HA tagged or N-terminally c-myc tagged (domain or fragment)", "chain": "not shown", "notes": "amyloid precursor protein, splice form APP695, stop codon after position 648 at the C-terminal end of the transmembrane domain; lacks the entire C-terminus; Two differently tagged copies: each chain carries either HA or c-myc, not both; also called Myc APP∆CT 648; HA APP∆CT 648; source: N2a, transiently transfected, in lysate (1% NP40); not shown: HA, N-terminal, kept; c-myc, N-terminal, kept"}}, "target": "the molecule itself", "test": "co-IP; trans: HA and c-myc tagged copies transfected into N2a cells in separate dishes, cells combined 4 h post-transfection and co-cultivated; lysis in 1% NP40 buffer; α-HA antibody beads; blot with α-c-myc"}
{"protein": "B1", "values": [{"measurement": "fold higher amount co-immunoprecipitated than APP WT", "result": 1, "unit": "fold higher"}]}
